This note sets out measurements from the supplement of paper PMC10126150.

This data set has as its system ATP. Put plainly: switch fluorescence ratio, 500 uM ATP over buffer (Cy3 cluster intensity, sum of 5 cycles each) (fold (ratio)); higher = stronger signal-on switching upon ATP binding; sequences stand for … in TCGTCGGCAGCGTCAGATGTGTATAAGAGACAGTTTTTTTTTTTTTTTTTTTTTTTTT…TC. Particulars: aptamer strand: ATP DNA aptamer (quencher-CACCTGGGGGAGTATTGCGGAGGAAGG + anchor), 100 nM annealed; ATP concentration: 500 uM; one replicate. The essentials:
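Clusters with intensities outside 100-1000 RFU were excluded. The remaining Cy3-labelled switching-strand clusters on a modified Illumina MiSeq flow-cell had been annealed to 100 nM quencher-labelled ATP aptamer and imaged in selection buffer, then after 15 min with 500 uM ATP at 22 °C, for five cycles separated by NaOH stripping and re-annealing. The fluorescence ratio, averaged per switch-domain sequence, is each cluster's summed target-cycle Cy3 intensity over its summed buffer-cycle Cy3 intensity.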

Sequences with one replicate were seen in a single cluster, so their values are uncertain.
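Note: ATP exposure 15 min at 22 °C before imaging.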

With AATCTTGTTT, the switch fluorescence ratio turned out to be 1. ACCAATACAA: the switch fluorescence ratio is 1.1. ATGAGTTACG: the switch fluorescence ratio was found to be 0.979. The figure for GGTTTCCAAC is 0.993; for AATATTAGGG it is 0.987; for CTCGTGGGGA it is 1.01. The figure for TGCATATGGT is 1.03; for TCACGAAGCT it is 1.03; for CATGCAAGA it is 1.17. Next, GCCCGGACAG: 1.03; CCGGACGAC: 4.12.

As for TATATATCAC, the switch fluorescence ratio is 1.03. Next, ATATCAGAAA: 1.03; ATCGTTTAAC: 0.955; ATGAGCTAGA: 0.96. Consider CCACATGGA, for which the switch fluorescence ratio turned out to be 1.02. Next, CAGCCGGGTT: 1.01. The figure for ACGCCGCTTG is 1.43. The figure for GTTTATATGG is 0.974. As for TGAGGAGGGT, the switch fluorescence ratio came to 0.959. For AACATGAACT, the switch fluorescence ratio turned out to be 1. Next, AGGCAGGGAC: 1.04; AGGTTCATGC: 0.942; ATCTTGCTGT: 1. Turning to AGTTTTCCAA, the switch fluorescence ratio turned out to be 1.03.

Take TGTAGTGTGT: the switch fluorescence ratio amounted to 0.937. The figure for TGAAGAGGCT is 1.05; for CCAGGGACCA it is 0.998. Next, GCCTTCCCTC: 2.33. Next, TCCTCGAGGA: 0.967; GAGGTCAGCA: 1.01; AGCGACGTCA: 1.01.

With GAACGCTGAG, the switch fluorescence ratio turned out to be 1.14. GCATTTAGCG: the switch fluorescence ratio came to 0.992. ATTTGCACGG: the switch fluorescence ratio turned out to be 1.03. Next, AATAAGCGCG: 1.07; GTGAGACAGC: 1.05; CCTGTGTCGA: 1.1. In the case of TGGAATTCAG, the switch fluorescence ratio turned out to be 1.02. Next, CACCCGGACT: 1.08. Next, TAAGACTGC: 1.03. Turning to ATCATGGGCG, the switch fluorescence ratio stood at 0.928. Next, GCTTTCTCGC: 1.42; CAAGCCACCT: 1.01. Next, GATTTAGACA: 1.03. As for ACAAGTATTT, the switch fluorescence ratio was 1. The figure for CTGGTTAGTG is 0.991. Next, AGCGGCTTG: 0.957. Next, ATAGTGTCCA: 0.976; CTTTGATATA: 1.01; AAGCGGTTGT: 0.989.

Regarding AAAAGTTGAG, the switch fluorescence ratio was found to be 1.03. The figure for CGCAAGAGGC is 2.18; for ATGGACCTAA it is 1.03; for GCGGTATTCA it is 0.996.

With GCCGCGTCCT, the switch fluorescence ratio was 1.02.

For the sequence GAGGAAGCGT, the switch fluorescence ratio was 1.03.

As to ACCATGTCAT, the switch fluorescence ratio came out at 1.01. The figure for ATACCAGGTA is 1.12.

Take AGCTGTGCAG: the switch fluorescence ratio was found to be 1.01.

With TCATCTATTC, the switch fluorescence ratio stood at 1.04. The figure for ATACTTCTCG is 1.03; for CTTTGAACGG it is 1.02; for CGTCGTGTCA it is 0.938. The figure for CTAAGAGGCA is 1; for GATCGACCCA it is 1.02. The figure for GGTGAACCCT is 1.03; for AACGCCATCC it is 1.44; for GAGTATTGT it is 0.963. On to GAAAATAC, for which the switch fluorescence ratio amounted to 1.1. The figure for CAATCGGAAA is 1.04.

Consider GCCCGCGCGT, for which the switch fluorescence ratio was determined as 1.05. Consider CTTCCGTGGT, for which the switch fluorescence ratio turned out to be 1.75. Next, ATGCATCTCA: 1.03; TTCTAATTCC: 1.1; TACGTAACGA: 1.37. Next, GTAGCGGGGC: 1.35; GGTGGCCGT: 1.02. Next, GGACTAGATT: 0.989.
